In PubChem BioAssay AID1794842 (National Center for Advancing Translational Sciences (NCATS), 2023) one finds activity change, negative = inhibition data, which are given here for 35 compounds.

Structures are written as SMILES. Fewer than 10 of roughly 2,800 compounds were called active. Calls follow the shape of the dose curve; as a rule, active = well fitted curve in the direction sought with a large enough effect; inconclusive = small, poorly fitted or top-dose-only effect, or another doubt; inactive = no such curve, though single readings can be large or run the other way. Some of the results follow.

The assay concerns the target Metallo-beta-lactamase type 2 (Klebsiella pneumoniae) (UniProt C7C422). Nature of the assay: qHTS to identify inhibitors of the New Delhi Metallo-beta-lactamase (NDM): Meropenem screen against the machine-based learning selections. Also: % of control where 0% means no effect. As to conditions: Purified NDM-1, meropenem hydrolysis, absorbance 300 nm; at 57.5 µM (top of the series) unless noted. The source says: Assay Submitter (PI): James Inglese Ph.D., Patricia Dranchak Ph.D., Mahesh Aitha Ph.D. Assay Development and Screening Technology Laboratory (ADST) National Center for Advancing Translational Sciences (NCATS), Rockville, MD National Institute of Health (NIH), Bethesda, Maryland The metallo-beta-lactamases (MBL) are a main antibiotic resistance mechanism evolved by bacteria. There is an urgent clinical need for MBL inhibitors to mitigate this growing threat. To support a machine-based learning study, qHTS has been used to experimentally test inhibitors identified by prediction tools.
UniProt C7C422, sequence (C7C422 whole entry, looked up): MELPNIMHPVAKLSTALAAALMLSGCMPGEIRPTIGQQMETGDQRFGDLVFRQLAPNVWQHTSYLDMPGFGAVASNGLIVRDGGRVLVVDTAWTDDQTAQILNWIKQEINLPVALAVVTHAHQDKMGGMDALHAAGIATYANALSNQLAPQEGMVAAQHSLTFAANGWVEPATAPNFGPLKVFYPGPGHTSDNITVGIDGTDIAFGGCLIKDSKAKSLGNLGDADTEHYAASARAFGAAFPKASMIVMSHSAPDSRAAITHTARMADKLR
PROTOCOL TABLE (as described by Inglese et al., 2007) SEQUENCE No. (e.g., 1, 2, 3, etc.); […] (e.g., enzyme, Incubation, Reagent, etc.); VALUE; DESCRIPTION Primary Screen 1; NDM-1; 4 uL of 3 nM enzyme [2 nM final] in 50 mM HEPES (pH 7.0), 1 uM […], 0.01% Tween20; Use BioRaptr to dispense into two sets of Aurora black, clear bottom high base 1536-well plates 2; Compounds; 23 nL; Use Pin Tool (Wako) to transfer DMSO control and library compounds in DMSO 3; Incubate; >30 min 4a; Reagent; 2 uL of 50 uM nitrocefin [16.7 uM final] to one set of assay plates 4b; Reagent; 2 uL of 150 uM meropenem [50 uM final] to second set of assay plates 5a; Incubate; 15 min 5b; Incubate; 30 min 6a; Detector; Absorbance at 485 nm (bandwidth = 5 nm, 25 flashes/well) on Tecan Infinity 6b; Detector; Absorbance at 300 nm (bandwidth = 5 nm, 25 flashes/well) on Tecan Infinity NOTES (numbers refer to sequence above) 1; Column 1 of each plate received assay buffer without enzyme and columns 2-48 received enzyme for a final assay concentration of 2 nM. 2; Control plate contained DMSO in columns 1, 2, 3, and 4. 3; Compound interaction with enzyme. 4; Nitrocefin and meropenem substrates were prepared in the same assay buffer as step 1 for a final assay concentration of 16.7 uM and 50 uM, respectively, and added to all wells across respective sets of assay plates. 5; Default reader settings were applied for absorbance read at 485 nm (nitrocefin) or 300 nm (meropenem), bandwidth = 5 nm, 25 flashes/well. References: Inglese J, Shamu CE, Guy RK. 2007. Reporting data from high-throughput screening of small-molecule libraries. Nat Chem Biol. doi:10.1038/nchembio0807-438 Yasgar A, Shinn P, Jadhav A, Auld D, Michael S, Zheng W, Austin CP, Inglese J, Simeonov A. 2008. Compound Management for Quantitative High-Throughput Screening. J Lab Autom 13:79 - 89. doi:10.1016/j.jala.2007.12.004
In general terms: Quantitative high-throughput screening tests each substance at several concentrations.
Take `C#C[C@H]1CN2CC[C@H]1C[C@@H]2COC(=O)Nc1cc(OC)cc(OC)c1`: the activity change, negative = inhibition is inactive: 8.76%.

As to `CCN(CC)C[C@H]1CN2CC[C@H]1C[C@@H]2CNC(=O)Nc1cccc(SC)c1`, the activity change, negative = inhibition was inactive: 0.946%.

`Cn1nc(-c2ccccc2)cc1[C@H]1CN2CC[C@H]1C[C@@H]2CNC(=O)N1CCOCC1`: the activity change, negative = inhibition is inactive: 2.81%.

Consider `Cc1ncc2c(n1)C[C@@H]1CC[C@H]2N1C(=O)c1sccc1C`, for which the activity change, negative = inhibition is inactive: 3.42% [at 38.4 µM].

With `Cc1nc(-c2ccccc2)cc([C@H]2CN3CC[C@H]2C[C@@H]3CNC(=O)C2CCC2)n1`, the activity change, negative = inhibition was inactive: 0.822%.

Take `O=C(C1CCCCC1)N1C[C@@H]2C[C@H](C1)c1ccc(-c3cccc(C(F)(F)F)c3)c(=O)n1C2`: the activity change, negative = inhibition was inactive: 0.734% [at 38.4 µM].

Consider `COc1ccc(-c2cc([C@H]3CN4CC[C@H]3C[C@@H]4CNS(=O)(=O)c3ccc(C)cc3)n(C)n2)cc1OC`, for which the activity change, negative = inhibition is inactive: -1.62% [at 38.4 µM].

With `Cc1cccc(OCC(=O)N2[C@H]3CC[C@@H]2c2cnc(-c4ccccc4)nc2C3)c1`, the activity change, negative = inhibition is inactive: -2.98% [at 38.4 µM].

In the case of `Cc1nc(-c2ccccc2)cc([C@H]2CN3CC[C@H]2C[C@@H]3CNC(=O)c2cccs2)n1`, the activity change, negative = inhibition was inactive: -1.41%.

Regarding `O=C(c1ccc(F)cc1)N1C[C@@H]2C[C@H](C1)c1c(-c3cc4ccccc4s3)ccc(=O)n1C2`, the activity change, negative = inhibition is inactive: 2.24% [at 38.4 µM].

Consider `CC(=O)NCCNC(=O)[C@H]1CN2CCC1C[C@@H]2Cn1cc(-c2ccc(C(C)(C)C)cc2)nn1` (stereo not given in full), for which the activity change, negative = inhibition was inactive: 1.52% [at 38.4 µM].

Turning to `C=C[C@H]1CN2CC[C@H]1C[C@@H]2CNC(=O)c1cc(OC)c(OC)c(OC)c1`, the activity change, negative = inhibition is inactive: -0.0689%.

As for `CC(C)NC(=O)NC[C@H]1C[C@@H]2CCN1C[C@@H]2c1cc(C2CCCCC2)nn1C`, the activity change, negative = inhibition is inactive: -0.638%.

With `Cn1nc(-c2cccs2)cc1[C@H]1CN2CC[C@H]1C[C@@H]2CNC(=O)Nc1ccccc1`, the activity change, negative = inhibition was inactive: -1.44%.

Turning to `CCCS(=O)(=O)NC[C@H]1C[C@@H]2CCN1C[C@@H]2c1cc(-c2cccs2)nn1C`, the activity change, negative = inhibition is inactive: -2.97%.

For `CN(Cc1ccccc1)C[C@H]1CN2CC[C@H]1C[C@@H]2CNC(=O)Nc1cccc(C#N)c1`, the activity change, negative = inhibition was inactive: -3.64%.

`O=C(O)c1cn(Cc2ccccc2F)nn1`: the activity change, negative = inhibition was inactive: 54.3% [at 38.4 µM].

Regarding `CC(C)N1C[C@@H]2OCC(=O)N(CC3CC3)[C@@H]2C1`, the activity change, negative = inhibition was inactive: 2% [at 76.7 µM].

`COc1ccccc1N1CCN(C(=O)[C@H]2CN3CCC2C[C@@H]3Cn2cc(C(C)(C)O)nn2)CC1` (stereo not given in full): the activity change, negative = inhibition was inactive: -4.12% [at 38.4 µM].

For `Cc1nc(-c2ccccc2Br)cc([C@H]2CN3CC[C@H]2C[C@@H]3CNC(=O)c2ccc(N(C)C)cc2)n1`, the activity change, negative = inhibition was inactive: 1.29% [at 38.4 µM].

Take `CCCS(=O)(=O)NC[C@H]1C[C@@H]2CCN1C[C@@H]2CC`: the activity change, negative = inhibition was inactive: 5.83% [at 76.7 µM].

Consider `CCCc1nc(C)cc(N2CCC3(CC2)CNC(C(=O)O)C3)n1` (stereo not given), for which the activity change, negative = inhibition was inactive: 55.3% [at 38.4 µM].

Turning to `Cc1nc(-c2ccccc2Br)cc([C@H]2CN3CC[C@H]2C[C@@H]3CNC(=O)Nc2ccccc2)n1`, the activity change, negative = inhibition was inactive: 13.1% [at 38.4 µM].

Take `CNCc1cn(C[C@H]2CC3CCN2C[C@@H]3C(=O)Nc2ccccc2)nn1` (stereo not given in full): the activity change, negative = inhibition is inactive: 0.253%.

Take `CN(C[C@H]1CN2CC[C@H]1C[C@@H]2CNS(=O)(=O)c1cccs1)c1ccccc1`: the activity change, negative = inhibition is inactive: 25.1%.

In the case of `COCC(=O)NC[C@H]1C[C@@H]2CCN1C[C@@H]2c1cc(-c2cccs2)nn1C`, the activity change, negative = inhibition is inactive: 2.61%.

Take `CCNC(=O)NC[C@H]1C[C@@H]2CCN1C[C@@H]2c1cc(-c2ccccc2)nn1C`: the activity change, negative = inhibition was inactive: 0.788%.

In the case of `O=C(O)C1CC2(CCN(C(=O)CCc3ccncc3)CC2)CN1` (stereo not given), the activity change, negative = inhibition was inactive: 54.5% [at 38.4 µM].

Consider `CC(C)NC(=O)NC[C@H]1C[C@@H]2CCN1C[C@@H]2c1cc(-c2cccs2)nn1C`, for which the activity change, negative = inhibition was inactive: 1.79%.

Turning to `Cn1nc(-c2ccc(F)cc2)cc1[C@H]1CN2CC[C@H]1C[C@@H]2CNC(=O)COc1ccccc1`, the activity change, negative = inhibition is inactive: 0.39% [at 38.4 µM].

Regarding `C=C[C@H]1CN2CC[C@H]1C[C@@H]2CNC(=O)c1ccc(C#N)cc1`, the activity change, negative = inhibition is inactive: 13.2%.

With `COCC(=O)NC[C@H]1C[C@@H]2CCN1C[C@@H]2c1cc(-c2ccc(OC)cc2)nn1C`, the activity change, negative = inhibition is inactive: 0.133%.

Take `CC(C)(C)c1cn(C[C@H]2CC3CCN2C[C@@H]3C(=O)NCc2ccccc2)nn1` (stereo not given in full): the activity change, negative = inhibition was inactive: -1.06%.

`COc1ccc(NC(=O)OC[C@H]2C[C@@H]3CCN2C[C@@H]3c2cc(-c3ccccc3OC)nn2C)cc1`: the activity change, negative = inhibition is inactive: 3.57% [at 38.4 µM].

Take `COc1cc2c(cc1Oc1ccccc1)NC(=O)C21CCN(Cc2cccc(O)c2)CC1`: the activity change, negative = inhibition was inactive: 1.51%.
